# Test results as given in PubChem BioAssay AID485294 (National Center for Advancing Translational Sciences (NCATS), 2010).
# Screen size: about 370,000 compounds; about 150 (0.041%) were called active. Inconclusive means that the source gave no clear call. Such entries were picked first, then a sample of the others. The call rests on the fitted dose curve; in most records, active means well fitted inhibition curve with a large enough effect; inconclusive means small, poorly fitted or top-dose-only effect; inactive means flat fitted curve, though single readings scatter. Potencies of inconclusive entries are left out as doubtful fits.
# Target: Beta-lactamase (Escherichia coli (strain K12)) (UniProt P00811)
# Experiment: qHTS Inhibitors of AmpC Beta-Lactamase (assay with detergent); further: nearly all actives have a fitted effect of over 25% in size;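 on activity change, negative = inhibition: 0% = no-compound wells and -100% = no-enzyme wells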
# Details: AmpC hydrolysis of nitrocefin, absorbance 480 nm, 0.01% Triton; activity change, negative = inhibition: at 114 µM (top of the series)
# Method in brief: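 AmpC (5.3 nM in the dispensed reagent) in 20 mM phosphate pH 7.0 with 0.01% (detergent screen) or 0.0001% Triton X-100 was preincubated with compounds for 15 min at room temperature. Nitrocefin was then added from an 800 uM solution, and hydrolysis was followed at 480 nm.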
# Potency means the concentration at half of the fitted maximal effect; tags describe the fitted curve by direction and shape.
# Sequence of UniProt P00811 (P00811 whole entry, looked up): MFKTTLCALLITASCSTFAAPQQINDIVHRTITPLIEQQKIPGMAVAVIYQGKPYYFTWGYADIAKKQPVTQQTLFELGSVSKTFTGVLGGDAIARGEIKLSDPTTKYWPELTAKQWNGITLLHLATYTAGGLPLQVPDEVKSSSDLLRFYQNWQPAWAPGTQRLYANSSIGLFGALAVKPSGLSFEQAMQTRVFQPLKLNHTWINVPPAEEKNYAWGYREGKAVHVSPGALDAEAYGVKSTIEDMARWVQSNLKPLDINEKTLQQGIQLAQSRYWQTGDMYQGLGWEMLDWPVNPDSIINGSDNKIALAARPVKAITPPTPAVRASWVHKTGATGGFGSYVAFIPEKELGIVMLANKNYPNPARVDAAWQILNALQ
SMILES,Potency,"activity change, negative = inhibition"
CSc1ccccc1-c1n[nH]c(=S)o1,"inconclusive [inhibitor, full curve]",–
Oc1ccc2ccccc2c1CN1CC=C(c2ccccc2)CC1,–,inactive: 0.114%
CC(C)(C)c1ccc(OCCN2CCCC2)cc1,"inconclusive [inhibitor, full curve]",–
CC(/C=N/NC(=O)c1cnccn1)=C\c1ccco1,–,inactive: 8.3%
CN(C1(C)CCS(=O)(=O)C1)S(=O)(=O)c1ccc2ccccc2c1 (centres undefined),"inconclusive [inhibitor, partial curve]",–
O=C(N/N=C/c1ccc2nccnc2c1)c1ccc(Br)cc1,"inconclusive [inhibitor, full curve, poor fit]",–
CCOc1ccc(NC(=O)COc2ccc3c(c2)CCC3)cc1OC,–,inactive: 0.324%
CN(C)/C=C/C(=O)c1ccc(-n2cccc2)cc1,"inconclusive [inhibitor, partial curve, poor fit]",–
CN(C(=O)CN1CCCCCC1)c1c(N)n(Cc2ccccc2)c(=O)[nH]c1=O,"inconclusive [inhibitor, full curve, poor fit]",–
CCc1ccc(/C=c2\s/c(=C\C(=O)C(C)(C)C)[nH]c2=O)cc1,–,inactive: 4.5%
O=[N+]([O-])c1ccccc1S(=O)(=O)Nc1ccc(S(=O)(=O)Nc2nccs2)cc1,"inconclusive [inhibitor, full curve, poor fit]",–
COc1ccc(-c2csc(N3CCOCC3)n2)cc1OC,–,inactive: -9.13%
COc1cc(Cl)c(CN2CCCC(CO)(Cc3ccccc3)C2)cc1OC (centres undefined),"inconclusive [inhibitor, partial curve, poor fit]",–
NS(=O)(=O)c1ccc(CCNC(=O)CSc2nc3ccsc3c(=O)n2CC(=O)O)cc1,–,inactive: -9.6%
Cn1c(N2CCN(C(c3ccccc3)c3ccccc3)CC2)nc2c1c(=O)[nH]c(=O)n2C,"inconclusive [inhibitor, full curve, poor fit]",–
O=C(Nc1nc2ccccc2n1CCN1CCCCC1)c1ccco1,"inconclusive [inhibitor, full curve, poor fit]",–
CCC(C(=O)NCCc1cc(OC)ccc1OC)n1nc(C)c2sc3ccccc3c2c1=O (centres undefined),–,inactive: -0.585%
O=C(N/N=C/c1cc([N+](=O)[O-])ccc1Cl)c1cc(-c2ccccc2)nc2ccccc12,"inconclusive [inhibitor, partial curve]",–
COc1cccc(-c2nc(N3CC(C)CC(C)C3)c3ccccc3n2)c1O (centres undefined),–,inactive: -8.91%
Cc1cc(OCCOc2cccc3cccnc23)cc(C)c1Cl,"inconclusive [inhibitor, single point]",–
Cc1cc(C)n(CC(O)Cn2c3ccccc3c3ccccc32)c(=O)n1 (centres undefined),"inconclusive [inhibitor, full curve]",–
O=C(/C=C/c1ccccc1Cl)N(Cc1ccc(Cl)cc1)C1CCS(=O)(=O)C1 (centres undefined),"inconclusive [inhibitor, full curve]",–

SMILES,Potency,"activity change, negative = inhibition"
Cc1ccc(-c2csc(NC(=O)c3cccc([N+](=O)[O-])c3)n2)cc1,–,inactive: -4.96%
COC(=O)c1c(NC(=O)COC(=O)c2ccccc2O)sc2c1CCCCC2,"inconclusive [inhibitor, single point]",–
Cc1ccc(NC(=O)c2ccccc2OCC(=O)Nc2ccccc2F)cc1S(=O)(=O)N(C)C,"inconclusive [inhibitor, partial curve, poor fit]",–
O=C(CSc1oc(-c2cccs2)nc1S(=O)(=O)c1ccc(F)cc1)NCC1CCCO1 (centres undefined),"inconclusive [inhibitor, full curve, poor fit]",–
O=C(NCc1ccco1)C(c1ccccc1F)N(CC1CCCO1)C(=O)Cn1nnc2ccccc21 (centres undefined),"inconclusive [inhibitor, full curve, poor fit]",–
Cc1cc(C(=O)CSc2nn(-c3ccccc3)c(=S)s2)c(C)n1Cc1ccco1,–,inactive: -0.421%
Cc1ccc(C)c(N(C)S(=O)(=O)c2ccc3[nH]cc(C(=O)NC4CCCC4)c(=O)c3c2)c1,–,inactive: 9.99%
COc1ccc(N=C2S/C(=C\c3cccs3)C(=O)N2CC(C)C)cc1,"inconclusive [inhibitor, partial curve]",–
CCOc1ccc(S(=O)(=O)NCC(c2cccs2)S(=O)(=O)c2ccc(C)cc2)cc1 (centres undefined),–,inactive: -2.01%
CCOC(=O)C1=C(C)C(c2cccc(Oc3ccccc3)c2)NC(=S)N1 (centres undefined),"inconclusive [inhibitor, partial curve]",–
CCCNC(=O)C(Cc1cccc(C#N)c1)NC(=O)c1cccc([N+](=O)[O-])c1 (centres undefined),–,inactive: 8.12%
C/C=C/COc1nc2c(c(=O)n(C)c(=O)n2C)n1C,"inconclusive [inhibitor, full curve, poor fit]",–
O=C(CSc1nnc(-c2ccccc2)o1)N1CCCCC1,–,inactive: 4.26%
NC1=NC(=O)/C(=C/c2cn(CCC(=O)O)nc2-c2ccc(Cl)cc2)S1,"inconclusive [inhibitor, full curve, poor fit]",–
O=C(COC(=O)c1cccc2c1C(=O)c1ccccc1C2=O)NC1CCCCC1,–,inactive: 0.603%
O=C(NCCCCCCNC(=O)C1CCCC1)C1CCCC1,"inconclusive [inhibitor, partial curve, poor fit]",–
COc1ccc(NC(=O)c2c(C(F)(F)F)nn(C)c2SCc2ccccc2Cl)cc1,"inconclusive [inhibitor, partial curve, poor fit]",–
O=C(Nc1cccc(Cl)c1)c1cnccn1,–,inactive: -14.1%
CC(C)c1nnc(NC(=O)C2c3ccccc3Oc3ccccc32)s1,"inconclusive [inhibitor, full curve, poor fit]",–
COC(=O)Cn1cc([N+](=O)[O-])nc1C,"inconclusive [inhibitor, single point]",–
Cc1ccc(S(=O)(=O)NNC(=O)CCC(=O)Nc2ccc(C)cc2C)cc1,"inconclusive [inhibitor, partial curve]",–
Cc1cccnc1NC(=O)CSc1nnc(Cc2ccccc2)o1,"inconclusive [inhibitor, partial curve]",–
